{"source": "the antibiotic and cytotoxicity screens of Wong et al. (2023)", "note": "This is one part of the list."}
{"system": "HSkMC (human skeletal muscle cells)", "experiment": "cytotoxicity call (relative viability < 0.9)", "settings": "10 µM"}
{"compound": "COc1ccc(S(=O)(=O)N[C@@H]2CC[C@H](CC(=O)N3CCN(c4ccccc4)CC3)O[C@H]2CO)cc1", "cytotoxicity call": "inactive"}
{"compound": "C[C@@H]1CN([C@@H](C)CO)C(=O)c2cccc(NC(=O)C3CCCCC3)c2O[C@H]1CN(C)Cc1ccc(Oc2ccccc2)cc1", "cytotoxicity call": "inactive"}
{"compound": "CN1C(=O)c2cc(NC(=O)c3cnccn3)ccc2OC[C@@H]2O[C@H](CC(=O)NCC3CCCCC3)CC[C@H]21", "cytotoxicity call": "inactive"}
{"compound": "C[C@@H]1CN([C@H](C)CO)C(=O)c2cc(NS(=O)(=O)c3ccc(Cl)cc3)ccc2O[C@H]1CN(C)Cc1ccc(Oc2ccccc2)cc1", "cytotoxicity call": "active"}
{"compound": "C[C@H](NCc1ccc(OCC(N)=O)cc1)C(N)=O", "cytotoxicity call": "inactive"}
{"compound": "Cc1noc(C)c1S(=O)(=O)Nc1ccc2c(c1)C(=O)N([C@@H](C)CO)C[C@@H](C)[C@@H](CN(C)S(=O)(=O)c1c(C)noc1C)O2", "cytotoxicity call": "inactive"}
{"compound": "COCC#Cc1ccc([C@H]2[C@H]3CN(C(=O)C4CCOCC4)CC(=O)N3[C@H]2CO)cc1", "cytotoxicity call": "inactive"}
{"compound": "C[C@@H]1CN([C@H](C)CO)C(=O)c2cccc(NS(=O)(=O)c3ccccc3)c2O[C@@H]1CN(C)Cc1ccncc1", "cytotoxicity call": "inactive"}
{"compound": "COc1ccc(S(=O)(=O)Nc2ccc3c(c2)C(=O)N([C@@H](C)CO)C[C@@H](C)[C@@H](CN(C)S(=O)(=O)c2cccs2)O3)cc1", "cytotoxicity call": "inactive"}
{"compound": "Cc1ccc(S(=O)(=O)N(C)C[C@H]2Oc3ccc(NS(=O)(=O)c4cccs4)cc3CC(=O)N([C@H](C)CO)C[C@@H]2C)cc1", "cytotoxicity call": "inactive"}
{"compound": "COc1cccc(NC(=O)N(C)C[C@H]2Oc3cc(C#CC4(O)CCCC4)ccc3S(=O)(=O)N([C@H](C)CO)C[C@H]2C)c1", "cytotoxicity call": "inactive"}
{"compound": "C[C@@H]1S[C@H](C)C(=O)NC1=O", "cytotoxicity call": "inactive"}
{"compound": "C[C@@H]1CN([C@@H](C)CO)C(=O)c2cccc(NS(=O)(=O)c3cn(C)cn3)c2O[C@@H]1CN(C)S(=O)(=O)c1cn(C)cn1", "cytotoxicity call": "inactive"}
{"compound": "Cc1cnc(N)c(C)n1", "cytotoxicity call": "inactive"}
{"compound": "O=C(CCc1cn(CC(=O)N2CCC3(CC2)C(=O)NCN3c2ccccc2)nn1)NO", "cytotoxicity call": "inactive"}
{"compound": "CO/N=C(\\C(=O)N[C@@H]1C(=O)N2C(C(=O)O)=C(CSc3nnnn3C)CS[C@H]12)c1csc(N)n1", "cytotoxicity call": "inactive"}
{"compound": "C[C@@H]1CN([C@H](C)CO)C(=O)c2cc(NC(=O)Cn3cnnn3)ccc2O[C@@H]1CN(C)Cc1ccc(Oc2ccccc2)cc1", "cytotoxicity call": "inactive"}
{"compound": "Cc1noc(C)c1S(=O)(=O)N(C)C[C@@H]1Oc2ccc(NC(=O)c3ccncc3)cc2CC(=O)N([C@@H](C)CO)C[C@@H]1C", "cytotoxicity call": "inactive"}
{"compound": "C[C@H](CO)N1C[C@H](C)[C@H](CN(C)Cc2ccc(C(F)(F)F)cc2)OCCCC[C@H](C)Oc2ccc(NC(=O)Nc3ccc(F)cc3)cc2C1=O", "cytotoxicity call": "inactive"}
{"compound": "COc1ccc(-c2nc(-c3ccc(C)cc3C)cs2)cc1", "cytotoxicity call": "inactive"}
{"compound": "CN1Cc2c(CN3CCCC3=O)nn(C)c2C1", "cytotoxicity call": "inactive"}
{"compound": "C=CC1(C)CC(=O)C2(O)C(C)(O1)C(O)C(O)C1C(C)(C)CCC(O)C12C", "note": "(stereo not given)", "cytotoxicity call": "inactive"}
{"compound": "C[C@@H]1CN([C@H](C)CO)S(=O)(=O)c2ccc(C#Cc3ccncc3)cc2O[C@H]1CN(C)C(=O)C1CCC1", "cytotoxicity call": "inactive"}
{"compound": "CCC(C)C1OC2(C=CC1C)CC1CC(CC=C(C)C(OC3CC(OC)C(OC4CC(OC)C(NC(C)=O)C(C)O4)C(C)O3)C(C)C=CC=C3COC4C(O)C(C)=CC(C(=O)O1)C34O)O2", "note": "(stereo not given)", "cytotoxicity call": "inactive"}
{"compound": "Cc1noc(C)c1NC(=O)N(C)C[C@@H]1Oc2c(NC(=O)c3ccc(-c4nccs4)cc3)cccc2C(=O)N([C@H](C)CO)C[C@@H]1C", "cytotoxicity call": "inactive"}
{"compound": "C[C@@H]1CN([C@@H](C)CO)C(=O)c2cc(NC(=O)C3CCCCC3)ccc2O[C@@H](C)CCCCO[C@@H]1CN(C)S(=O)(=O)c1ccc(Cl)cc1", "cytotoxicity call": "inactive"}
{"compound": "C[C@@H]1CCCCO[C@H](CN(C)C(=O)Nc2ccc(C(F)(F)F)cc2)[C@H](C)CN([C@H](C)CO)C(=O)c2cc(NC(=O)Nc3ccc(C(F)(F)F)cc3)ccc2O1", "cytotoxicity call": "inactive"}
{"compound": "Cc1ccc(Cc2nc(-c3ccc(Cl)cc3)cs2)cc1", "cytotoxicity call": "inactive"}
{"compound": "C[C@@H]1CN([C@@H](C)CO)C(=O)c2cccc(NC(=O)Nc3ccc(F)cc3)c2O[C@H]1CN(C)CC1CCCCC1", "cytotoxicity call": "inactive"}
{"compound": "COc1ccc(C#Cc2cnc3c(c2)C(=O)N([C@H](C)CO)C[C@@H](C)[C@@H](CN(C)C(=O)CC2CC2)O3)cc1", "cytotoxicity call": "inactive"}
{"compound": "C[C@H](CO)N1C[C@H](C)[C@H](CN(C)S(=O)(=O)c2cn(C)cn2)Oc2c(NC(=O)C3CC3)cccc2C1=O", "cytotoxicity call": "inactive"}
{"compound": "C[C@H](CO)N1C[C@H](C)[C@@H](CN(C)Cc2ccc(C(F)(F)F)cc2)Oc2ccc(NC(=O)Cc3cn(C)c4ccccc34)cc2C1=O", "cytotoxicity call": "inactive"}
{"compound": "C[C@@H]1CN([C@@H](C)CO)C(=O)c2cccc(NC(=O)C3CCCCC3)c2O[C@H]1CN(C)C(=O)Nc1cccc2ccccc12", "cytotoxicity call": "inactive"}
{"compound": "CC(C)(Sc1cc(C(C)(C)C)c(O)c(C(C)(C)C)c1)Sc1cc(C(C)(C)C)c(OC(=O)CCC(=O)O)c(C(C)(C)C)c1", "cytotoxicity call": "active"}
{"compound": "CC[C@@H](CO)NCCN[C@@H](CC)CO", "cytotoxicity call": "inactive"}
{"compound": "CSc1cccc2sc(Nc3ccc(Cl)cc3)nc12", "cytotoxicity call": "inactive"}
{"compound": "C[C@H](CO)N1C[C@H](C)[C@@H](CN(C)Cc2ccc3c(c2)OCO3)OCCCC[C@H](C)Oc2ccc(NS(=O)(=O)c3ccc(Cl)cc3)cc2C1=O", "cytotoxicity call": "inactive"}
{"compound": "COCC#Cc1ccc([C@@H]2[C@@H](CO)N3C(=O)CN(C(=O)C4CCOCC4)C[C@@H]23)cc1", "cytotoxicity call": "inactive"}
{"compound": "CCOC(=O)c1cccnc1N", "cytotoxicity call": "inactive"}
{"compound": "C[C@H]1CCCCO[C@@H](CN(C)S(=O)(=O)c2ccc(F)cc2)[C@@H](C)CN([C@@H](C)CO)C(=O)c2cc(NC(=O)NC3CCCCC3)ccc2O1", "cytotoxicity call": "inactive"}
